Measured values taken from PubChem BioAssay (NCI).
Where “and” joins values, the source holds several entries; their conditions need not be identical. Equal entries are not always repeated.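 A five-concentration, 48-hour dose response in 96-well plates underlies each endpoint, interpolated linearly between surrounding concentrations. GI50: concentration for 50% inhibition of growth. TGI: concentration producing complete growth inhibition.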

These molecules were tested on NCI-H322M lung (assay: NCI anticancer screen, dose series, 48 h).

First: CC1(C)OCC2(CO1)CSCCCSCC1(COC(C)(C)OC1)CSCCCSC2
Second: Cc1ccc(S(=O)(=O)OC[C@]23CCC(C)(C)C[C@H]2C2=CC[C@@H]4[C@@]5(C)CCCNC(C)(C)[C@@H]5CC[C@@]4(C)[C@]2(C)CC3)cc1
The TGI of the first is higher: over 100 µM for the first, 40.5 µM for the second.

Compared with COc1cc(-c2nn(-c3ccc(NC(=O)Nc4ccc(Cl)c(Cl)c4)cc3)cc2-c2ccncc2)ccc1Cl, Cc1nc2ccccc2c(=O)n1/N=C(\N=Nc1cc(Cl)ccc1Cl)c1cccc(-c2ccco2)c1 is higher in TGI: 81.5 µM for the first, over 100 µM for the second.

First: CN1C(OCc2ccccc2)c2c(ccc3c2OCO3)C2C=Cc3cc4c(cc3C21)OCO4 (stereo not drawn)
Second: CC[C@@]1(OC(=O)CN)C(=O)OCc2c1cc1n(c2=O)Cc2cc3cc4c(cc3nc2-1)OCO4
The TGI of the first is 3.3-fold higher: 2.48 µM for the first, 0.746 µM for the second.

CCN(CC)C(=O)CC1=C(C)/C(=C/c2[nH]c(-c3ccc[nH]3)cc2OC)N=C1C and CCC1=C(C)/C(=C/c2[nH]c(C(Br)Br)c(CC)c2C)N=C1C(Br)Br cannot be ordered by TGI: over 100 µM for the first, over 100 µM for the second.

C[n+]1noc(/N=N\[O-])c1-c1cc(-c2c(/N=N\[O-])on[n+]2C)cc(-c2c(/N=N/[O-])on[n+]2C)c1 and CCN(CC)c1ccc2c(c1)OC(=O)C(c1nnc(-c3ccc([N+](=O)[O-])cc3)o1)C2 (stereo not drawn) cannot be ordered by TGI: over 100 µM for the first, over 100 µM for the second.

Nc1ncnc2c1ncn2C1OC(CSC(F)(F)F)C(O)C1O (stereo not drawn) and CC(C)(C)[Si](C)(C)OCC1CCC(n2cnc3c(=O)[nH]cnc32)O1 (stereo not drawn) cannot be ordered by TGI: over 100 µM for the first, over 100 µM for the second.

O=C1c2ccccc2NC(c2cc(Cl)cc(Cl)c2O)N1CCc1ccccn1 (stereo not drawn) and Oc1ccc(Cl)cc1-c1[nH]c(=S)nc(-c2ccccc2)c1Cl cannot be ordered by TGI: over 100 µM for the first, over 100 µM for the second.

Compared with CC1(C)C(c2ccccc2)C12CCC1(C2=O)C(c2ccccc2)C1(C)C (stereo not drawn), O=C(/C=C/c1ccccc1)c1c[nH]c2ccccc2c1=O is lower in TGI: over 100 µM for the first, 13.4 µM for the second.

Going from COc1ccc(C2=Nc3ccccc3SC(C)C2)cc1 (stereo not drawn) to CCSc1c(C)c2c(n(Cc3ccc(OC)cc3)c1=O)Cc1ccccc1C2, the TGI falls from over 100 µM to 85.7 µM.

COC(=O)c1ccc(Oc2nc3ccccc3nc2-c2cccs2)cc1 and O=C(Cn1c(=O)c(-c2ccccc2)nc2ccccc21)c1ccc(Cl)cc1 cannot be ordered by TGI: over 100 µM for the first, over 100 µM for the second.

OC(CC(CC(O)(C(F)(F)Cl)C(F)(F)Cl)=NNc1ccccc1)(C(F)(F)Cl)C(F)(F)Cl and CN(CCC#N)c1ccc(/C=C(\C#N)c2cccc(C(F)(F)F)c2)cc1 cannot be ordered by TGI: over 10 µM for the first, over 100 µM for the second.

Going from COC(=O)C1=C(OC(=O)/C(=C/c2ccc(Cl)cc2Cl)c2ccc(Cl)cc2Cl)C(C(=O)OC)[C@@]2(O)[C@@H](C(=O)OC)[C@H](C)C[C@@H]1[C@@H]2C(=O)OC (stereo partly drawn) to COc1ccc(Cl)cc1Nc1nc(C(F)(F)F)ccc1C(=O)N/N=C/c1ccc([N+](=O)[O-])cc1, the TGI falls from over 100 µM to 4.26 µM.

Going from Cc1oc2nc[nH]c(=O)c2c1C(=O)/C=C/c1ccc(Cl)cc1 to COC(=O)/C=C/c1cnc2c(c1)oc(=O)n2CCc1ccccn1, the TGI rises from 10.9 µM to over 100 µM.

N#Cc1nc(C2CC2)oc1N and Nc1ccc2c(c1)C1=NNC(=O)CC1C2 (stereo not drawn) cannot be ordered by TGI: over 100 µM for the first, over 100 µM for the second.

First: O=C(CCN1CCOCC1)Nc1ccc(F)cc1F
Second: CN1CCN(CCCOc2cccc3nc(Nc4ccc(Cl)c(F)c4)ccc23)CC1
The TGI of the first is higher: over 100 µM for the first, 4.28 µM for the second.

O=C(CC(=O)C(=O)Nc1ccccc1)CC(c1ccccc1)c1c(O)c2ccccc2oc1=O (stereo not drawn) and O=C(C/C(=N\NC(=O)C[n+]1ccccc1)C(=O)Nc1nc2ccc([N+](=O)[O-])cc2s1)CC(c1ccccc1)c1c(O)c2ccccc2oc1=O (stereo not drawn) cannot be ordered by TGI: over 100 µM for the first, over 100 µM for the second.

CC(=O)OCCOCNC(=S)N/N=C/c1ccc2ccccc2n1 and O=C(CC(=O)c1ccc([N+](=O)[O-])cc1)C(=O)Nc1nccs1 cannot be ordered by TGI: over 100 µM for the first, over 100 µM for the second.

NC(=O)C(c1ccccc1)N1OC2C(=O)N(Cc3ccccc3)C(=O)C2C1c1cccc(Oc2ccc(Cl)cc2)c1 (stereo not drawn) and O=C1CSC(/C=C/c2ccccc2)N1c1ccc(-c2ccc(-n3c(-c4ccccc4)nc4ccccc4c3=O)cc2)cc1 (stereo not drawn) cannot be ordered by TGI: over 100 µM for the first, over 100 µM for the second.

COC1(C(C)(C)C)C=C(C(C)(C)C)P(=O)(O)O1 (stereo not drawn) and CC(NC(=O)C(OC(=O)C(C)NC(=O)OC(C)(C)C)C(C)C)C(=O)OC(C(=O)O)C(C)C (stereo not drawn) cannot be ordered by TGI: over 100 µM for the first, over 100 µM for the second.

CN(C)/C(N)=N/C(N)=Nc1cccc(Cl)c1 and N#CC(c1ccc(Cl)cc1)c1c(O)nc2ccc(=N)cc-2n1O (stereo not drawn) cannot be ordered by TGI: over 100 µM for the first, over 100 µM for the second.

O=C1c2cccc3cc([N+](=O)[O-])cc(c23)C(=O)N1NC1=NCCN1 and [N-]=[N+]=Nc1ccc(NCCCCCC(=O)ON2C(=O)CCC2=O)c([N+](=O)[O-])c1 cannot be ordered by TGI: over 100 µM for the first, over 100 µM for the second.

Going from COC1C(O)C(C)OC(OC2C(Oc3cccc4c(O)c5c(=O)oc6ccc(C)c7c(=O)oc(c34)c5c67)OC(C)C3O[C@H](c4ccccc4)OC32)C1O (stereo partly drawn) to CO[C@H]1[C@@H](O)[C@@H](C)O[C@@H](O[C@H]2CC[C@@]3(C)[C@H](CC[C@@H]4[C@@H]3CC[C@]3(C)[C@@H](C5=CC(=O)OC5)CC[C@]43O)C2)[C@@H]1O, the TGI falls from 8.04 µM to 0.0597 µM (130-fold).

C=C[C@@]1(C)CCC2(O)C(CCC3C2(C)CCC[C@@]3(C)COC(=O)CC(=O)OC)C1 (stereo partly drawn) and COC(=O)CCC1(C)C2CCC1(C)/C(=N/O)C2 (stereo not drawn) cannot be ordered by TGI: over 100 µM for the first, over 100 µM for the second.

Going from C#CCn1c(=O)ccn(/C(=C\C(=O)OCC)C(=O)OCC)c1=O to O=c1[nH]c(=O)n(C2CC(O)C(CO)O2)cc1OCCc1ccccc1 (stereo not drawn), the TGI rises from 36 µM to over 100 µM.

CC1(c2cccc3c2C2(O)C=CC4(CCC32)OCCO4)OCCO1 (stereo not drawn) and CC1(C)OC(=O)[C@@](C)([C@H](O)c2ccccc2)O1 cannot be ordered by TGI: over 100 µM for the first, over 100 µM for the second.

NC(C/[N+]([O-])=N/O)C(=O)O (stereo not drawn) and CC1CC(C)[C@H](O)C([C@H](O)CC2CC(=O)N(C)C(=O)C2)C1 (stereo partly drawn) cannot be ordered by TGI: over 500 µM for the first, over 100 µM for the second.

O[C@@]1(c2cccs2)c2cccc(Cl)c2[C@](O)(c2cccs2)c2cccc(Cl)c21 and Clc1ccccc1C(n1ncc2ccccc21)n1ncc2ccccc21 cannot be ordered by TGI: over 100 µM for the first, over 100 µM for the second.

O=S1(=O)NNC(=NCc2ccc(Cl)c(Cl)c2)c2ccccc21 and O=C(COc1ccc(/C=C2\Oc3ccccc3C2=O)cc1)Nc1nccs1 cannot be ordered by TGI: over 100 µM for the first, over 100 µM for the second.

Going from C[C@@]12c3c4ccc(C=O)c3Oc3ccc(C=O)c(c31)Oc1c(C=O)ccc(c12)O4 to O=C1c2cccc3cccc(c23)C(=O)N1CCCNCCCCNCCCN1C(=O)c2cccc3cccc(c23)C1=O, the TGI falls from over 100 µM to 1.75 µM.

COc1cc(N2CCN(C(C)C)CC2)ccc1Nc1nc(Nc2cccc3ncccc23)c2cc[nH]c2n1 and NC(N)=NS(=O)(=O)c1ccc(Nc2c3ccccc3nc3c(C(=O)N4CCN(CCO)CC4)cccc23)cc1 cannot be ordered by TGI: over 25 µM for the first, over 100 µM for the second.

First: O=S1CSCS1 (stereo not drawn)
Second: O=C(CBr)N1CCC2(CC1)SSC1(CCN(C(=O)CBr)CC1)S2
The TGI of the first is higher: over 100 µM for the first, 7.86 µM for the second.

CCNC(C)(C)C(SS)c1ccc(Br)cc1 (stereo not drawn) and O=c1cc(CO)n(CCc2c[nH]c3ccccc23)cc1O cannot be ordered by TGI: over 100 µM for the first, over 100 µM for the second.

Going from C=C1CC(Cn2ccc(=O)[nH]c2=O)(c2ccc(-c3ccccc3)cc2)OC1=O (stereo not drawn) to COc1ccc2c(c1)[C@]1(C[C@H]1c1ccc3c(/C=C/c4ccc(CN5C[C@@H](C)O[C@@H](C)C5)cc4)n[nH]c3c1)C(=O)N2, the TGI rises from 26 µM to over 100 µM.

CC1C2=C(CC(C)(C)CC2=O)NC2=C1C(=O)CC(C)(C)C2 gave a TGI of over 100 µM.

First: COc1cc(-c2nn(-c3ccc(NC(=O)Nc4ccc(Cl)c(Cl)c4)cc3)cc2-c2ccncc2)ccc1Cl
Second: COc1ccc(Cl)cc1Nc1nc(C(F)(F)F)ccc1C(=O)N/N=C/c1ccc([N+](=O)[O-])cc1
The GI50 of the first is 5.9-fold higher: 6 µM for the first, 1.02 µM for the second.

Going from CCN(CC)C(=O)CC1=C(C)/C(=C/c2[nH]c(-c3ccc[nH]3)cc2OC)N=C1C to Cc1oc2nc[nH]c(=O)c2c1C(=O)/C=C/c1ccc(Cl)cc1, the GI50 rises from 0.929 µM to 2.32 µM (2.5-fold).

First: O=C(/C=C/c1ccccc1)c1c[nH]c2ccccc2c1=O
Second: O=C(Cn1c(=O)c(-c2ccccc2)nc2ccccc21)c1ccc(Cl)cc1
The GI50 of the first is 15-fold lower: 3.57 µM for the first, 53.2 µM for the second.

Going from CC[C@@]1(OC(=O)CN)C(=O)OCc2c1cc1n(c2=O)Cc2cc3cc4c(cc3nc2-1)OCO4 to COc1ccc2c(c1)[C@]1(C[C@H]1c1ccc3c(/C=C/c4ccc(CN5C[C@@H](C)O[C@@H](C)C5)cc4)n[nH]c3c1)C(=O)N2, the GI50 rises from 0.0103 µM to over 100 µM.

CN(CCC#N)c1ccc(/C=C(\C#N)c2cccc(C(F)(F)F)c2)cc1 and O=C(COc1ccc(/C=C2\Oc3ccccc3C2=O)cc1)Nc1nccs1 cannot be ordered by GI50: over 100 µM for the first, over 100 µM for the second.

Going from COc1cc(N2CCN(C(C)C)CC2)ccc1Nc1nc(Nc2cccc3ncccc23)c2cc[nH]c2n1 to CN1CCN(CCCOc2cccc3nc(Nc4ccc(Cl)c(F)c4)ccc23)CC1, the GI50 falls from 7.33 µM to 1.7 µM (4.3-fold).

For Cc1ccc(S(=O)(=O)OC[C@]23CCC(C)(C)C[C@H]2C2=CC[C@@H]4[C@@]5(C)CCCNC(C)(C)[C@@H]5CC[C@@]4(C)[C@]2(C)CC3)cc1, the GI50 was 14.9 µM.

With COc1cc(NS(C)(=O)=O)ccc1Nc1c2ccccc2nc2c(C)cccc12 the GI50 was 3.76 µM and 3.2 µM.
In the case of NC(C/[N+]([O-])=N/O)C(=O)O (stereo not drawn), the GI50 is reported as 4.37 µM and 3.72 µM and 10.2 µM.

With COc1cc(NS(C)(=O)=O)ccc1Nc1c2ccccc2nc2c(C)cccc12 the TGI was 18.8 µM and 17.3 µM.
